These results are taken from the supplement of paper PMC12889115.

Molecules are shown by their SMILES. Some of the results follow. No stated cut-off is given here; in the data, active = 25% or less and inactive = the rest. Single values are uncertain, as repeats are few or missing.

For test [1], the system named is Salmonella enterica serovar Typhimurium SL1344. Nature of the test: bacterial growth OD600 after 18 h in MHB with 0.5 µg/mL polymyxin B; higher = more bacterial growth (less inhibition). The note with it: 25 µM; polymyxin B 0.5 µg/mL; system: broth. How it is done: (§1)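 Secondary screen of the 553 primary hits at 25 µM. (i) S. Typhimurium SL1344 grown in Mueller-Hinton broth with 0.5 µg/mL polymyxin B, OD600 read after 18 h. (ii) SAFIRE assay: RAW 264.7 macrophages infected with S. Typhimurium sifB::gfp (MOI 30); compound added 2 h post-infection; cells fixed at 18 h; GFP-positive pixel fraction per macrophage imaged by confocal microscopy and expressed as % of DMSO control.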

Test [2] has the same test system. Nature of the test: intramacrophage bacterial GFP load (SAFIRE), percent of DMSO control (% of DMSO); higher = more intracellular bacteria (less inhibition). The note with it: 25 µM; system: infected RAW 264.7 macrophages. As for the experimental part:
as §1
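Wherever bacterial growth OD600 after 18 h in MHB with 0.5 µg/mL polymyxin B is given: polymyxin B level opens the outer membrane while sparing the inner membrane, with novobiocin wells as reference growth inhibitor.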
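Wherever intramacrophage bacterial GFP load (SAFIRE), percent of DMSO control is given: compounds tested were the hits of an earlier 50 µM broth growth screen of a drug-like diversity library run with polymyxin B.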

Regarding `O=C(CC1(c2ccccc2)CC(=O)N(CCc2ccccn2)C1=O)N1CCC(Cc2ccccc2)CC1` (configuration not stated), the “bacterial growth OD600” value in test [1] was -0.012. The “intramacrophage bacterial GFP load” value in test [2] was inactive: 45.3.
On the same counts, the results for `O=C(NCCc1ccccn1)c1ccc(OC2CCN(C(=O)C3CC3)CC2)cc1` are -0.006 and inactive: 91.
On the same counts, the results for `Cc1ccc(F)cc1S(=O)(=O)N1CCCC(CO)(Cc2cccc(Cl)c2)C1` (configuration not stated) are -0.01 and inactive: 107.
The matching figures for `CC(=O)c1ccc(F)c(-c2cc(C)cc3c2OC(CNC(=O)c2ccccc2F)C3)c1` (configuration not stated): 0.015 and inactive: 112.
On to `Cc1cnc(SCCN2CCOCC2)nc1C1CCCN(C(=O)CCC2CCCCC2)C1` (configuration not stated), for which the “bacterial growth OD600” value in test [1] amounted to 0.001. In addition, in test [2], the “intramacrophage bacterial GFP load” value was inactive: 29.9.
On the same counts, the results for `COc1ccccc1C1(CC(=O)N2CCCC2c2ccc(F)cc2)CC(=O)N(C2CCCC2)C1=O` (configuration not stated) are -0.019 and inactive: 79.3.
The matching figures for `Cn1nccc1C(=O)NCC1Cc2cc(-c3cccc(OC(F)(F)F)c3)ccc2O1` (configuration not stated): -0.005 and inactive: 202.
On the same counts, the results for `CCN(Cc1ccccc1)Cc1cnc(S(=O)(=O)C(C)C)n1CCc1ccccc1` are -0.021 and inactive: 77.7.
Consider `Cc1ccn(CC(=O)N2CCCC(CCc3ccccc3C)C2)n1` (configuration not stated), for which, in test [1], the “bacterial growth OD600” value came to 0.021. Moreover, the “intramacrophage bacterial GFP load” value in test [2] was inactive: 129.
On the same counts, the results for `O=C(c1cn(CC2COc3ccccc3O2)nn1)N1CCC2(C=Cc3ccccc32)CC1` (configuration not stated) are -0.003 and inactive: 105.
On the same counts, the results for `CN1CCN(C(=O)c2cc(COc3ccc(F)cc3F)on2)CC1c1ccccc1` (configuration not stated) are 0.048 and inactive: 68.4.
On the same counts, the results for `COC(c1ccc2c(c1)CN(C(=O)c1scc3c1OCCO3)CCO2)C1CCCCC1` (configuration not stated) are -0.002 and inactive: 75.1.
On to `COCCCN1C(=O)CC(CC(=O)N2CCC(c3ccccc3Cl)C2)(c2ccccc2OC)C1=O` (configuration not stated), for which the “bacterial growth OD600” value in test [1] was -0.004. Besides, the “intramacrophage bacterial GFP load” value in test [2] was inactive: 81.3.
Take `COCc1noc(-c2ccc(N3CCCC3c3nccs3)nc2)n1` (configuration not stated): the “bacterial growth OD600” value in test [1] worked out at 0.666. Besides, in test [2], the “intramacrophage bacterial GFP load” value was inactive: 208.
As to `CC1CN(Cc2cccc3ncccc23)Cc2cc(Cl)ccc2O1` (configuration not stated), the “bacterial growth OD600” value in test [1] is 0.177. Besides, the “intramacrophage bacterial GFP load” value in test [2] was inactive: 55.2.
On the same counts, the results for `OCC1(Cc2ccccc2F)CCCN(Cc2cccc3ccccc23)C1` (configuration not stated) are -0.012 and active: 3.32.
On the same counts, the results for `Cc1cc(-c2cc(F)cc3c2OC(CNC(=O)C2(C)CC2)C3)ccc1F` (configuration not stated) are 0 and inactive: 72.9.
As for `COc1cc(CN2CCCC(CO)(Cc3cccc(Cl)c3)C2)cc(Cl)c1OC` (configuration not stated), the “bacterial growth OD600” value in test [1] was -0.008. In test [2], the “intramacrophage bacterial GFP load” value was active: 2.83.
In the case of `COc1ccc(CC2(CCC(=O)N3CCN(c4cc(Cl)ccc4C)CC3)CCC(=O)N2)c(F)c1` (configuration not stated), the “bacterial growth OD600” value in test [1] was -0.03. The “intramacrophage bacterial GFP load” value in test [2] is inactive: 92.2.
The matching figures for `CCOC(=O)C1(CCc2ccccc2)CCCN(C(=O)c2ccc(OC)o2)C1` (configuration not stated): 0.003 and active: 13.8.
On the same counts, the results for `Cc1cc(OCc2cc(C(=O)N(C)Cc3ccccn3)no2)cc(C)c1Cl` are 0.001 and inactive: 124.
